Data reported in article PMC12136788.
The list shows a part of the results.

T1: UNK ZnF1-3 (human, UniProt Q9C0B0 31-174)
T1 sequence: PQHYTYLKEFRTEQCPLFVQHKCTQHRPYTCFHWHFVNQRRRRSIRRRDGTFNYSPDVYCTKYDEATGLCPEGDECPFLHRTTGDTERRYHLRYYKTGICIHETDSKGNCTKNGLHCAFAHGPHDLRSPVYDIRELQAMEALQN

B1: 142886085_142886205_9081_CDS_ENSMUSG00000031004_ENSMUST00000033310|mouse|control|control (ssRNA)
RNA: GGGAGUUCUACAGUCCGACGAUCAGGUACAGGCUUCUCAUCUGUUGCUUCCUGCUUUGGUGCUAAAGAGCGCAAAGCCCUGGUUCUCACAAUGCUUCCAUCUCUUGCAGACUUCCUCUUCGGGGACAGCAAAGGGUUGCUUUUCAACAGAGGAUUGAGCAUCA
B2: 150918690_150919650_944_CDS_ENSG00000033050_ENST00000287844|human|control|control (ssRNA)
RNA: GGGAGUUCUACAGUCCGACGAUCCAUGUGAAUGAUAUUGGUACAGACACCAUUCAGAAAAUCCUGGGAAUGGGAGACGAGGACCAAGAUGCGCUUAAAAGUUUUUAGUUCUUCUUCCAACCACACGCAAGCAUCUAGGUCCAGCAACAGAGGAUUGAGCAUCA
B3: chr11:2966284:2966285:-_ENSG00000205531_ENST00000380542|hu_hu|motif|central (ssRNA)
RNA: GGGAGUUCUACAGUCCGACGAUCAGGUGACCCGCAGCAGCUCUCACCUGGGCUGGUGUGUCACAACCCUGACCCACCCCGGAAAAAAAAAAAAAAUCAAGAAGCAACAUCCUAAGGAGAACAGGGCCCUACUCUACACAGCCCCAACAGAGGAUUGAGCAUCA
B4: chr12:39756943:39756944:-_ENSG00000139116_ENST00000544797|hu_mus|hu_hu_hu_mus_False|58_108 (ssRNA)
RNA: GGGAGUUCUACAGUCCGACGAUCGGUUUGGCUAUUACCCCCAAGGGAAUCCUGCAAGAGUCUUGUCAGCUUAGAGUCUCUAUAGGGGACAUGGGUGGCUCUCUUGCUCUUGUCCCCCAAGGCGCUGAUUACAUUCCCAAGAGCCAACAGAGGAUUGAGCAUCA
B5: chr4:88367131:88367132:-_ENSMUSG00000070923_ENSMUST00000094993|mus_hu|motif|central (ssRNA)
RNA: GGGAGUUCUACAGUCCGACGAUCUUGGUAAUUGCUAGCUUCCAAAAGCAAAUUCACGCAGGUAUUGUCUGUUCUCAUGAAAUCGGCUGUCUGCACGUAAUUGAUGAGAUCCUGUGGUGUCAUCAGUGGAAAUCGAAUAUUCUUCAACAGAGGAUUGAGCAUCA
B6: chr17:65740002:65740003:+_ENSG00000130935_ENST00000581375|hu_hu|hu_hu_hu_mus_False|58_78 (ssRNA)
RNA: GGGAGUUCUACAGUCCGACGAUCAACAAAUCUUUCUUCCCUGGACGAACAGGAAGACAUAAAAGAGAAAAAAUAUAUGUCUAUGAAGUUAGGUGUGGUGGCCACACCUUUACUCCCAGCACUUUGGGAGGUGGAUCUCUGAGUCAACAGAGGAUUGAGCAUCA
B7: 53011563_53012086_1442_CDS_ENSMUSG00000061136_ENSMUST00000076313|mouse|control|control (ssRNA)
RNA: GGGAGUUCUACAGUCCGACGAUCCUCCCCAAACAUUUGCUCAGCUUUUUUGUAUCUGGUUGUGGAAGUCAUUUUCUCAUGAUUUUCAAGAAAACGCUGAAAAGAUUCCUUAGCUUCUUUGUAUUUUGAUCUUGCUUCUUCUUUCAACAGAGGAUUGAGCAUCA
B8: chrX:20248820:20248821:+_ENSMUSG00000001924_ENSMUST00000001989|mus_mus|mus_mus_mus_hu_True|88_98 (ssRNA)
RNA: GGGAGUUCUACAGUCCGACGAUCGGCGAAGUCCGUCAUCACAAAGUCAGGCUCUACCAGUGAGGCCACCAAGGAUUUAAAGCUAAUCUUCUUAGGUACUUUGACCUGACUGACGAUGCCUCCACGGAUGUAGUCGGAGAAGUUCAACAGAGGAUUGAGCAUCA
B9: chr4:144460044:144460045:+_ENSG00000153147_ENST00000283131|hu_mus|hu_hu_hu_mus_False|48_78 (ssRNA)
RNA: GGGAGUUCUACAGUCCGACGAUCACGGUCCAUAGCCUGAAGAUCAACUUGCGGAUUCCAAUCAGAAUCAUAUAAAAUGACUACAUCAGCAGUCGCAAGAUUGAUGCCCAGACCACCAGCACGUGUGCUUAGCAUAAAUACAAACAACAGAGGAUUGAGCAUCA
B10: chr1:245021434:245021435:-_ENSG00000153187_ENST00000283179|hu_mus|FALSE|FALSE (ssRNA)
RNA: GGGAGUUCUACAGUCCGACGAUCGAUAAAAGUACAGUCUUCAGGUAUUGGAAAGUAUGGCUUUUCCUUUUGACCGAAAUUAAAUUCAACUGCACAGUUAUGGCAGAGAACAUGUGGGAAUAGUGGCCGGUCAGCAAGAACUUCCAACAGAGGAUUGAGCAUCA
B11: chr14:89338683:89338684:+_ENSG00000165533_ENST00000346301|hu_hu|hu_hu_hu_mus_False|68_68 (ssRNA)
RNA: GGGAGUUCUACAGUCCGACGAUCGUGGUUGUUGUGGACCAGGGCCAGCCUGAAGCAUUGGUGGGCCAAAUUUGUAUCUCCGAUUCCCACAGCUAUGUGCCCCAGGUUGUACCAGACAUCAGCUGCCUCUUCUUCAUUUUCAGCCAACAGAGGAUUGAGCAUCA
B12: chr5:128448638:128448639:+_ENSG00000066583_ENST00000173527|hu_mus|hu_hu_hu_mus_False|58_98 (ssRNA)
RNA: GGGAGUUCUACAGUCCGACGAUCGGCACUCGCCUUAAUUAGAUUCUGAAUUUCCUUGAACUUCGGGUGGUCUUUGUCAGCUACCAGCUGUAGGAGGACAGCCUCACUAGUGGUCACGAUGAUCCCAGUGCGGGCAAGACGCUCCAACAGAGGAUUGAGCAUCA
B13: chr3:32586495:32586496:-_ENSG00000144635_ENST00000273130|hu_hu|motif|central (ssRNA)
RNA: GGGAGUUCUACAGUCCGACGAUCUUUCUGUAAAGAAUCCAAAGCAGUCCAAGGCUUUGACAUGUCAACAACCAGCAUAACGGGAGUAUCCUUCAGAGAUACGGCAUCCAGUGAAAAUUUAAGGAGGCCUUUGUGAUAUAGGUCCAACAGAGGAUUGAGCAUCA
B14: 70229870_70231617_115_3pUTR_ENSG00000138346_ENST00000358410|human|control|control (ssRNA)
RNA: GGGAGUUCUACAGUCCGACGAUCCUGUGCUCAGAACUGUUCUUGGAAAGGAAGCUACCACUUUCUUCUGAAAUAGCUCCGCCGGCAGCUCCGCCUCCUCCCAAAAACUCUUCUCCAUCAGCAGCUCCAGUUCGUUCAGCUGCUCAACAGAGGAUUGAGCAUCA

Biological target: T1, UNK ZnF1-3
Experiment: nsRBNS (natural sequence RNA bind-n-seq); RBNS binding buffer (assumed for nsRBNS): 25 mM Tris pH 7.5, 150 mM KCl, 3 mM MgCl2, 0.01% Triton X-100, 500 ug/ml BSA, 20 U/ml SUPERase-In, 4 C; UNK is unkempt and MSI1 is Musashi-1; names of the RNAs are library labels; protein concentration not given here; high values mean tight binding

Binder | binding signal [enrichment R]
B1 | 0.721
B2 | 0.662
B3 | 3.14
B4 | 0.763
B5 | 0.896
B6 | 0.869
B7 | 0.433
B8 | 1
B9 | 1.04
B10 | 0.939
B11 | 0.724
B12 | 0.785
B13 | 1.68
B14 | 0.761
